Laboratory results as given in PubChem BioAssay AID1240 (Sanford-Burnham Center for Chemical Genomics, 2008).
The campaign covered roughly 50,000 compounds. About 800 (1.6%) showed an effect of 50% or more. The list shows a part of the results.

These compounds were tested against Bcl-2-like protein 10 (Homo sapiens) (UniProt Q9HD36) (assay: TR3 peptide-Bcl-B binding displacers, biochemical primary FP assay, phenotype converters (AID 1240;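 note: 0% = Bcl-B with tracer peptide and DMSO and 100% = tracer peptide lacking Bcl-B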)). Settings: GST-Bcl-B / FITC-TR3 peptide fluorescence polarization; stronger effect = higher value; compound at 3.75 mg/L.
UniProt Q9HD36, sequence (Q9HD36 whole entry, looked up): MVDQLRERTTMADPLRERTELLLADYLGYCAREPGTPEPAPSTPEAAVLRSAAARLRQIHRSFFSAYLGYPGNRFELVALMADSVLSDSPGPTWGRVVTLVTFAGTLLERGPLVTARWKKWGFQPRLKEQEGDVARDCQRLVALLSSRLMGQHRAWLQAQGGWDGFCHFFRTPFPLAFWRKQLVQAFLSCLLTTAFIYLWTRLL

Going from `Cc1cc(C(=O)Nc2ccc(N3CCOCC3)cc2)ccc1[N+](=O)[O-]` to `Cc1onc(-c2ccccc2Cl)c1C(=O)Nc1ccc(C(N)=O)cc1`, the displacement rises from -4.2% to 4.7%.

Compared with `CN(C)c1cccc(C(=O)Nc2nccs2)c1`, `Cc1cccc(C(=O)Nc2ccc3oc(-c4ccc(N(C)C)cc4)nc3c2)c1` is higher in displacement: 5.7% for the first, 35.7% for the second.

First: CCC(C)NC(=O)C(=O)NCCc1ccccc1 (stereo unspecified)
Second: CC(=O)N/C(=C\c1ccccc1)C(=O)NC(CC(C)C)C(=O)O (stereo unspecified)
The displacement of the first is higher: 5.5% for the first, -2.1% for the second.

Compared with `Cc1ccc(NC(=O)Cc2nnc(NC(=O)Nc3cccc(Cl)c3)s2)cc1`, `Cc1ccc(/C(O)=C2\C(=O)C(=O)N(c3nncs3)C2c2cccc(Cl)c2)cc1` (stereo unspecified) is higher in displacement: 5.1% for the first, 12.7% for the second.

Compared with `CCOCCOC(=O)C1=C(C)NC2=C(C(=O)CCC2)C1c1ccc(OC)c(O)c1` (stereo unspecified), `COc1cccc(C2/C(=C(\O)c3ccccc3)C(=O)C(=O)N2CCCC(=O)O)c1` (stereo unspecified) is higher in displacement: -8.7% for the first, -8% for the second.

Going from `Cc1onc(-c2ccccc2)c1[N+](=O)[O-]` to `c1ccc(-c2cnc(-c3cccnc3)o2)cc1`, the displacement rises from 3.6% to 10%.

Going from `COc1ccccc1-n1c(CSCC(=O)Nc2ccc3ccccc3c2)nc2ccccc2c1=O` to `COc1ccc(NC2(c3ccccc3)OC(=O)c3ccccc32)cc1` (stereo unspecified), the displacement rises from -8.5% to 11.4%.

Going from `O=C(/C=C/c1ccccc1)CC(=O)C(Cl)(Cl)Cl` to `O=C(/C=C/c1ccc([N+](=O)[O-])cc1)NCCSc1ccccc1`, the displacement falls from 11% to -0.7%.

Compared with `Nc1ccc(-c2cc(-c3ccc(N)cc3)nc(-c3ccc(N)cc3)n2)cc1`, `O=C1NN(c2ccccc2)C(=O)/C1=C/c1cccc(OCc2ccccc2F)c1` is lower in displacement: -3.2% for the first, -19.8% for the second.

Compared with `COC(=O)CC1(C(=O)OC)NC(=O)C(N)=C1C(=O)OC` (stereo unspecified), `O=C(CC1SC(=O)NC1=O)Nc1ccc(C(=O)O)cc1` (stereo unspecified) is higher in displacement: 4.1% for the first, 15% for the second.

Compared with `CCC(Sc1nc2ccccc2[nH]1)C(=O)Nc1ccc(S(N)(=O)=O)cc1` (stereo unspecified), `NS(=O)(=O)c1ccc(N=Cc2ccccc2)cc1` is higher in displacement: -8.1% for the first, 9.4% for the second.

First: CCOC(=O)c1c(-c2cccs2)csc1NC(=O)c1ccc(N2C(=O)CCC2=O)cc1
Second: CC1=C(C(=O)Nc2ccccc2)C(c2cccs2)NC(=O)N1 (stereo unspecified)
The displacement of the first is lower: -8.8% for the first, -1.5% for the second.

First: Clc1ccc(C2NN=C(Cc3ccccc3)S2)c(Cl)c1 (stereo unspecified)
Second: CC(NC(=O)/C(C#N)=C/c1ccc(Cl)c(Cl)c1)c1ccccc1 (stereo unspecified)
The displacement of the first is lower: -3.3% for the first, 5.2% for the second.

Going from `CCOC(=O)C1CCN(C(=O)Cc2ccc(Cl)cc2)CC1` to `CCOC(=O)C(=CNc1ccc([N+](=O)[O-])cc1)C(=O)OCC`, the displacement rises from 19.7% to 24.4%.

Compared with `CCN1C(=O)/C(=C\c2ccc(N(C)C)c(Br)c2)SC1=S`, `COc1cc(/C=C2\SC(=S)N(NC(=O)c3ccc(Br)cc3)C2=O)ccc1O` is lower in displacement: 18.2% for the first, -3.5% for the second.

Compared with `O=C(O)c1c2c(nc3ccccc13)CCCCCC2`, `O=C1C(=O)/C(=C/c2ccccc2)CCC/C1=C/c1ccccc1` is lower in displacement: -6.4% for the first, -14.3% for the second.

Compared with `CC(NC(=O)/C(=C\c1ccc2c(c1)c1ccccc1n2C)NC(=O)c1ccccc1)c1ccccc1` (stereo unspecified), `C/C(=N\NC(=O)C(C)Oc1ccc(Cl)cc1)c1ccccc1` (stereo unspecified) is higher in displacement: -9.7% for the first, 4.7% for the second.

`Cc1cc2c(CC(O)C(Cl)(Cl)Cl)nc(-c3ccccc3)nc2s1` (stereo unspecified) and `Cc1ccc(NC(=O)c2sc3ccccc3c2Cl)nc1` are the same in displacement: 5.1% for the first, 5.1% for the second.

Compared with `CCOc1ccccc1/C=C1/C(=O)NN(c2ccccc2)C1=O`, `Cc1[nH]n(-c2ccccc2)c(=O)c1/C=N/NCc1ccccc1` is lower in displacement: 15.7% for the first, -22% for the second.

Compared with `CCOc1ccc(NC(=O)CC2S/C(=N\N=C(/C)c3ccco3)NC2=O)cc1` (stereo unspecified), `CN1C(=O)/C(=C/c2ccc(OC(=O)c3ccco3)cc2)SC1=S` is higher in displacement: -2% for the first, 14.7% for the second.

Going from `Nc1nonc1C(=O)NCCNC(=O)c1ccccc1Cl` to `O=C(/C=C/c1ccco1)Nc1cc(Cl)ccc1Cl`, the displacement falls from 3% to -3%.

Compared with `COc1ccccc1CN1CCN(C(=O)c2cc(OC)c(OC)c(OC)c2)CC1`, `O=C(c1cccnc1)N1CCN(C(=O)c2ccco2)CC1` is lower in displacement: 7.9% for the first, 3.1% for the second.

First: COc1ccc(CNC2CC(C)N(C)CC2C)cc1OC (stereo unspecified)
Second: COc1ccc(C2Nc3ccccc3-c3nnc(SC)nc3O2)c(OC)c1 (stereo unspecified)
The displacement of the first is lower: -7.4% for the first, 13.5% for the second.

First: CN1CCN(C2=NC(=O)/C(=C/c3ccc([N+](=O)[O-])cc3)S2)CC1
Second: O=C1NC(=Nc2ccc(O)cc2)S/C1=C\c1ccc(Cl)cc1
The displacement of the first is higher: 7.2% for the first, 0.3% for the second.

Going from `CCOC(=O)c1c(NC(=O)C23CC4CC(CC(C4)C2)C3)sc(C(C)=O)c1C` to `NCC(O)C12CC3CC(CC(C3)C1)C2` (stereo unspecified), the displacement rises from -8.2% to -1.4%.

First: COc1ccc2nc(NC(=O)COC(=O)CN3C(=O)c4ccccc4C3=O)sc2c1
Second: CCOc1ccc2nc(NC(=O)c3ccc(Cl)cc3)sc2c1
The displacement of the first is higher: 18.6% for the first, 5.6% for the second.

First: Cc1c(Br)c(C(F)(F)F)nn1CC(=O)Nc1cc(C(F)(F)F)ccc1Cl
Second: COC(=O)C1=C(C)N(c2cccc(C)c2)C(=O)/C1=C\c1ccccc1[N+](=O)[O-]
The displacement of the first is higher: 10% for the first, 9.9% for the second.

Going from `CCOc1cc(OCC)cc(C(=O)Nc2ccc(Cc3ccncc3)cc2)c1` to `Cc1ccc(S(=O)(=O)n2cccc2)cc1`, the displacement falls from -6.4% to -9.1%.
